Our source for the binding values is paper PMC4633242.

Chains of the proteins cited; added tags and fusions are not shown. Lines headed by an entry give the natural chain unless they say otherwise; changes in a name come on top. Residues count along the entry.
UniProt P14416: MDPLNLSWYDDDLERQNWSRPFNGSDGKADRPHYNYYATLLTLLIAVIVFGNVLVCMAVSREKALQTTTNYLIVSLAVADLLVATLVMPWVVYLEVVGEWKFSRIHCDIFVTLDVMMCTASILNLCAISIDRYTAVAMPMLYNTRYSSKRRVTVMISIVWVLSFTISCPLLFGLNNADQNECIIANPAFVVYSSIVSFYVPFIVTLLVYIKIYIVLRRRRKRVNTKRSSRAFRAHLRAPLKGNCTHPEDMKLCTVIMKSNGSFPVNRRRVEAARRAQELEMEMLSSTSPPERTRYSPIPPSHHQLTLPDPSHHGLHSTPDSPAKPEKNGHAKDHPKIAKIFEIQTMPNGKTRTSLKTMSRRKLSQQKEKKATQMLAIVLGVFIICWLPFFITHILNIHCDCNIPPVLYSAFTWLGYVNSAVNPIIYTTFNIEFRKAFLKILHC
second intracellular loop of the D2R (IL2, amino acids 131-151), yeast two-hybrid bait: residues 131-151 of P14416
UniProt Q9ULC8: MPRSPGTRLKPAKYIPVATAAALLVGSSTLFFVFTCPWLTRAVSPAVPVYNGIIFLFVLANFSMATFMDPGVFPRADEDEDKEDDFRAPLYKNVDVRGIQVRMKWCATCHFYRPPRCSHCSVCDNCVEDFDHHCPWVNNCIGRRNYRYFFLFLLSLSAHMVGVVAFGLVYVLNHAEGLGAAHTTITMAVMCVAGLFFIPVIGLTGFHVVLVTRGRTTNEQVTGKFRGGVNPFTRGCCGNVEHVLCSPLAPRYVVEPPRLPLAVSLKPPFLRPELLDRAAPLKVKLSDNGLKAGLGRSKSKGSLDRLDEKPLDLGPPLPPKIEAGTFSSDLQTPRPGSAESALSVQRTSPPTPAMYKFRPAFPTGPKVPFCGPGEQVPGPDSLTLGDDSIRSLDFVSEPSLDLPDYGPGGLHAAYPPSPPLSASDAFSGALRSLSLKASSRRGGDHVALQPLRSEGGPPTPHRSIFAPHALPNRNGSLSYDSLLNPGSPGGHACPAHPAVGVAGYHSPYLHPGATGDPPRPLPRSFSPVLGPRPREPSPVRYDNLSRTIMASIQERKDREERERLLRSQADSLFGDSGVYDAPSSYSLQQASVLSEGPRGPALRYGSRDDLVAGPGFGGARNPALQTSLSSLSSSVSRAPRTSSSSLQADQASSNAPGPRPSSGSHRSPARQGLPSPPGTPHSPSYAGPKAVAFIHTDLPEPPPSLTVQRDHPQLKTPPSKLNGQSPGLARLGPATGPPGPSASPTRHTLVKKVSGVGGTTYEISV

Assay [1] concerns the target FLAG-tagged D2L (HEK-D2L stable cells) (human) (UniProt P14416). The assay is described as follows: co-IP; FLAG-D2L immunoprecipitated with rabbit anti-D2R or mouse anti-FLAG on Protein G magnetic beads from lysates of HEK-D2L cells transiently expressing a myc-tagged PAT; 100 mM sodium phosphate pH 7.5, 150 mM NaCl, 1% Nonidet P-40; blots with anti-myc or anti-zDHHC8.

Assay [2] addresses second intracellular loop of the D2R (IL2, amino acids 131-151), yeast two-hybrid bait (human) (UniProt P14416). As to the kind of experiment: two-hybrid; directed yeast two-hybrid; receptor loops as baits in pAS2-1, zinc finger domains as preys in pACT2, S. cerevisiae MaV103; β-galactosidase filter lift.
The target of assay [3] is T1, second intracellular loop of the D4R (IL2, amino acids 132-151), yeast two-hybrid bait (UniProt P21917).
T1 sequence: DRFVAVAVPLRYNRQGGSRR
The description is as above.

Assay [4] addresses T2, second intracellular loop of the D5R (IL2, amino acids 137-158), yeast two-hybrid bait (UniProt P21918).
T2 sequence: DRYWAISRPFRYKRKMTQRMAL
Described as above.

The target of assay [5] is HA-tagged D2L (NG108-15 stable cells) (UniProt P14416). As to the kind of experiment: co-IP; HA-tagged D2L immunoprecipitated from stably transfected NG108-15 cells; mock with control IgG; blots with anti-zDHHC4 or anti-SERZβ.

Results are given in words; binding and its absence hold for the method and conditions named. For some assays here: In cells and extracts the contact can be indirect. Some binding calls cover weakened binding; strength is not graded here. For some assays here: Tags and fused reporters may be left off the sequences shown.

Regarding “myc-tagged zDHHC8 (from UniProt Q9ULC8 1-765) (enzyme)”, the binding entry in assay [1] is “binds”. Consider “zinc finger domain of zDHHC8 (amino acids 67-148), yeast two-hybrid prey (from UniProt Q9ULC8 67-148) (domain or fragment)”, for which the binding entry was “binds” in assay [2], “binds” in assay [3] and “no binding” in assay [4].

B1: myc-tagged GODZ (zDHHC3) (enzyme, UniProt Q9NYG2 1-299)
chain: MMLIPTHHFRNIERKPEYLQPEKCVPPPYPGPVGTMWFIRDGCGIACAIVTWFLVLYAEFVVLFVMLIPSRDYVYSIINGIVFNLLAFLALASHCRAMLTDPGAVPKGNATKEFIESLQLKPGQVVYKCPKCCSIKPDRAHHCSVCKRCIRKMDHHCPWVNNCVGENNQKYFVLFTMYIALISLHALIMVGFHFLHCFEEDWTKCSSFSPPTTVILLILLCFEGLLFLIFTSVMFGTQVHSICTDETGIEQLKKEERRWAKKTKWMNMKAVFGHPFSLGWASPFATPDQGKADPYQYVV
Consider B1, for which the binding result in assay [1] is “binds”.

B2: myc-tagged zDHHC4 (enzyme, UniProt Q9NPG8 1-344)
chain: MDFLVLFLFYLASVLMGLVLICVCSKTHSLKGLARGGAQIFSCIIPECLQRAVHGLLHYLFHTRNHTFIVLHLVLQGMVYTEYTWEVFGYCQELELSLHYLLLPYLLLGVNLFFFTLTCGTNPGIITKANELLFLHVYEFDEVMFPKNVRCSTCDLRKPARSKHCSVCNWCVHRFDHHCVWVNNCIGAWNIRYFLIYVLTLTASAATVAIVSTTFLVHLVVMSDLYQETYIDDLGHLHVMDTVFLIQYLFLTFPRIVFMLGFVVVLSFLLGGYLLFVLYLAATNQTTNEWYRGDWAWCQRCPLVAWPPSAEPQVHRNIHSHGLRSNLQEIFLPAFPCHERKKQE
Consider B2, for which, in assay [1], the binding entry was “binds”.

B3: zinc finger domain of zDHHC4 (amino acids 122-192), yeast two-hybrid prey (domain or fragment, UniProt Q9NPG8 122-192)
chain: NPGIITKANELLFLHVYEFDEVMFPKNVRCSTCDLRKPARSKHCSVCNWCVHRFDHHCVWVNNCIGAWNIR
Turning to B3, the figures for the binding entry in assay [2], in assay [3] and in assay [4] were “binds”, “binds” and “no binding”, respectively.

B4: zDHHC7 (SERZβ) in NG108-15 cells (probed with anti-SERZβ antibody) (enzyme, UniProt Q91WU6 1-308)
chain: MQPSGHRLRDIEHHPLLTDNDNYDSASSSSSETDMADRVWFIRDGCGMVCAVMTWLLVVYADFVVTFVMLLPSKDFWYSVVNGVLFNCLAVLALSSHLRTMLTDPGAVPKGNATKEYMESLQLKPGEVIYKCPKCCCIKPERAHHCSICKRCIRKMDHHCPWVNNCVGEKNQRFFVLFTMYIALSSVHALILCGLQFISCVRGQWTECSDFSPPITVILLVFLCLEGLLFFTFTAVMFGTQIHSICNDETEIERLKSEKPTWERRLRWEGMKSVFGGPPSLLWMNPFVGFRLRRLQMRTRKGGPEFSV
Take B4: the binding result in assay [5] was “no binding”.

B5: zDHHC4 in NG108-15 cells (detected with anti-zDHHC4 antibody) (enzyme, UniProt Q9D6H5 1-343)
chain: MDFLVLFLFYLAFLLICVVLICIFTKSQRLKAVVLGGAQVCSRVIPQCLQRAVQTLLHQLFHTRHPTFIVLHLLLQGLVYAEYTCEVFGYCRELEFSLPYLLLPYVLLSVNLVFFTLTCAANPGTITKANESFLLQVYKFDDVMFPKNSRCPTCDLRKPARSKHCRLCDRCVHRFDHHCVWVNNCIGAWNTRYFLIYLLTLTASAATIATVTAAFLLRLVTVSDLYQETYLDDVGHFQAVDTVFLIQHLFLAFPRIVFLLGFVIVLSMLLAGYLCFALYLAATNQTTNEWYKGDWAWCQRWPLVAWSPSAEPRIHQNIHSHGFRSNLREIFLPATPSYKKKEK
As for B5, the binding result in assay [5] was “binds”.
